Out of some 110,000 compounds screened, about 230 (0.21%) showed an effect of 50% or more. The list shows a part of the results.
Each compound was assayed against DPAP1 (Plasmodium falciparum, UniProt Q8IIJ9) (assay: primary screen, percent inhibition; read by cleavage of a fluorogenic dipeptide substrate; higher = more effect of the substance).
Design: species or system P. falciparum D10 trophozoite lysates; single well
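Further: 30 min substrate incubation versus DMSO and 10 µM JCP410 controls.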

Sequence of DPAP1 (Q8IIJ9 whole entry, looked up): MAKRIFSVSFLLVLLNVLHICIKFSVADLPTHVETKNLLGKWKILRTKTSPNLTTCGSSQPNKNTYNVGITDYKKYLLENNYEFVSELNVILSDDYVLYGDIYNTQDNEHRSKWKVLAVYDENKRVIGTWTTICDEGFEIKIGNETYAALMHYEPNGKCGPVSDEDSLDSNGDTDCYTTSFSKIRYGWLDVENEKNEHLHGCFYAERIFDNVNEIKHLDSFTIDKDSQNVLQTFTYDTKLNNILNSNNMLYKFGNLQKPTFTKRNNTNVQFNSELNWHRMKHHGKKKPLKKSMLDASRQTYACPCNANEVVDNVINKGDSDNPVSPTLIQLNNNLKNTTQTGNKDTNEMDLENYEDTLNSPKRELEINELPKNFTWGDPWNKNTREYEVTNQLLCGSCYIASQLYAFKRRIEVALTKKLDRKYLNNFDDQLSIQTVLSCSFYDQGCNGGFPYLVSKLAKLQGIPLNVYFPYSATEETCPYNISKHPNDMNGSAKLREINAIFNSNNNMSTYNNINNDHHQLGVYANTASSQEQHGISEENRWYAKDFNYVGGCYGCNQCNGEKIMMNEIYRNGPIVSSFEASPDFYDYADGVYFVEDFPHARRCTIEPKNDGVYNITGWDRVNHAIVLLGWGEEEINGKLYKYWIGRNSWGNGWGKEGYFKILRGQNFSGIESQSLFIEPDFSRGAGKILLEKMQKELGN

SMILES | % Inhibition @ 10 uM [%]
COc1cc(CN2CCN(Cc3ccccc3Br)CC2)cc(OC)c1 | -11.4
Cc1ccc2c(c1)NC(c1ccco1)C1=C(O)CC(C)(C)CC1=N2 (stereo not shown) | 5.66
CC(=O)Nc1ccc(NC(=O)CCCC(=O)O)cc1 | -0.128
CC(C)(C)NC(=O)CN(C1CCCCC1)S(C)(=O)=O | 2.44
CC1CCC2C(=O)N(CNc3cccc(Cl)c3)C(=O)C2C1 (stereo not shown) | -2.53
CC(C)SC1=NSC2=NC(=O)/C(=C\c3ccc(OS(C)(=O)=O)c(Cl)c3)C(=N)N21 | -3.51
N#CCNC(=O)[C@H](CC1CCCCC1)NC(=O)c1ccc(Cl)s1 | -5.21
CCn1c(=O)c(C(=O)Nc2nc(-c3ccc(Br)cc3)cs2)c(O)c2ccccc21 | -3.04
COc1ccccc1[C@H]1NCC[C@@]2(O)CCCC[C@H]12 | -5.5
c1ccc2cc(OCCCCCN3CCCCC3)ccc2c1 | 3
COc1ccc(-c2cc(C(=O)Nc3sc(C)c(C)c3C(N)=O)c3ccccc3n2)c(OC)c1 | 7.74
Cc1c(C)n(C)c2ccc(C(=O)N3CCOCC3)cc12 | 1.78
Cc1cccc(C(=O)NC2=NC(=O)CC(c3ccccc3Cl)N2)c1 (stereo not shown) | -3.3
CCOc1ccc(-c2cc(CCCC(=O)NCCc3sccc3C)no2)cc1 | 1.62
Cc1ccc(C2CC(=O)N=C(N)N2)cc1 (stereo not shown) | -4.76
COc1cccc2c1NC(c1ccccc1)C1CC=CC21 (stereo not shown) | 5.37
Cc1cc(NC(=O)c2ccc(N(C)S(C)(=O)=O)cc2)ccc1Br | -1.44
Cc1cccn2c(=O)c3cc(C(=O)NCCc4ccccc4)c(=N)n(Cc4ccco4)c3nc12 | 20.7
CSc1nc(Oc2cccc(C)c2)cc(-n2nc(C)c(C#N)c2N)n1 | -0.725
COc1cccc(CNC(=O)c2cn(C3CCCC3)c(=O)c3c2c2ccccc2n3C)c1 | -1.58
COc1ccc(OC)c(NC(=O)c2sc3ccccc3c2Cl)c1 | -1.5
CC(NC(=O)c1cccc2c1C(=O)N(C1CCCCC1)C2)c1ccccc1 (stereo not shown) | 4.01

SMILES | % Inhibition @ 10 uM [%]
CC(C)c1ccc(OCCN2CCCCC2)cc1 | 3.76
Cc1ccc(-c2cc(C(F)(F)F)n3ncc(C(=O)NCc4cn(C)nc4C)c3n2)cc1 | 0.24
CCOC(=O)N1CCC(N2Cc3cccc(C(=O)NCc4ccccn4)c3C2=O)CC1 | 2.9
CC1(C)CC2=Nc3sc(C#N)c(N)c3C(c3ccccc3)C2=C(O)C1 (stereo not shown) | 6.08
CC(NC(=O)c1cc2c(s1)-c1ccccc1OC2)c1ccc2c(c1)OCCO2 (stereo not shown) | -3.08
O=C(c1cccnc1)n1nc(-c2ccco2)nc1NCc1cccs1 | -6.98
c1ccc(-c2ccc(NC3CCCC3)nn2)cc1 | -4.8
COc1ccc(C(=O)Nc2ccc(Br)c(C)c2)c(OC)c1 | -6.33
O=C(Nc1nnc(S(=O)(=O)NCc2ccccc2)s1)C1CCCCC1 | 1.68
CCN1CCN(CCNC(=O)c2ccc3c(c2)c(C)c(C)n3C)CC1 | 2.29
CC(=O)Nc1ccc(Oc2cccc(Oc3ccc(NC(C)=O)cc3)c2)cc1 | -6.02
O=C(NCCc1ccc(Cl)cc1)c1coc2nc3ccccc3nc12 | 3.04
Cc1[nH]c2ccc(C(=O)N3CCOCC3)cc2c1C | 4.27
Fc1ccc(N2CCN(Cc3ccccc3)CC2)cc1 | -0.192
COc1cc2c(cc1NC(=O)Nc1cccc(C)c1)oc1ccccc12 | -9.2
CSc1nc(-c2ccccc2)nc(N2CCN(C)CC2)c1C(C)=O | 6.7
CC1CCN(c2c(NCc3ccc(C(=O)NCc4ccccc4Cl)cc3)c(=O)c2=O)CC1 | -4.26
Cc1ccc(S(=O)(=O)Cc2ccc(C(=O)N3CCC(C(N)=O)CC3)o2)cc1 | -10.3
Cc1ccc(-n2nc3c(=O)n(CCCC(=O)N4CCC5(CC4)OCCO5)nc(C)c3c2C)cc1 | -6.33
Cc1ccc(-c2nc(CS(=O)(=O)CC(=O)N(C)Cc3ccccc3)c(C)o2)cc1 | -3.93
COc1ccc(CNc2nc(-c3ccc(Cl)cc3)nn2C(=O)Cc2ccc(OC)cc2)cc1 | -1.11
COc1cc(C2NC(=O)NC(O)(C(F)(F)F)C2C(=O)c2cccnc2)cc(OC)c1OC (stereo not shown) | 5.46

SMILES | % Inhibition @ 10 uM [%]
COc1cccc(CN2CCN(Cc3cccc(Br)c3)CC2)c1OC | 3.7
COc1ccc(-c2ccc3c(N)c(C#N)sc3n2)cc1 | -3.63
CCOc1ccc(-n2c(CNC(=O)c3ccco3)nnc2SCC(=O)Nc2nccs2)cc1 | 1.91
O=C(CN(c1ccc2c(c1)OCCO2)S(=O)(=O)c1ccccc1)NCc1ccc(Cl)cc1 | -6.39
OC1CCN(c2ccc(Cl)cn2)CC1 | -1.2
Cc1cccc(CN2CCN(CC(=O)N3CCCCCC3)C2=O)c1 | -1.27
COc1ccc(-c2nc(CSCC(=O)N3CCN(C(=O)c4ccco4)CC3)c(C)o2)cc1OC | 3.99
Cc1nc2nc(C)c(Br)c(O)n2n1 | -2.8
CCc1ccc(NC(=O)CSc2ncn(-c3ccccc3)n2)cc1 | 5.39
COc1cccc(/C=C/c2nc(C#N)c(N(C)C)o2)c1 | 2.54
Cc1cc(C)nc(SCc2nc3ccc(Cl)cn3c2Cl)n1 | 0.906
CC1CCCCC1NC(=O)c1cc2c(s1)CS(=O)(=O)C2 (stereo not shown) | -4.86
COc1cc(OC)cc(C(=O)Nc2ccc(C)cc2C(=O)O)c1 | -0.891
CN(C)c1ccnc(Oc2ccccc2Cl)c1C#N | -0.712
CCn1cc(/C=C2/NC(=O)N(Cc3cccc(C)c3)C2=O)c2ccccc21 | -12.5
NC(=O)C1c2ccccc2CSc2ccccc21 (stereo not shown) | -15.6
COc1cccc(-c2ccc3c(N)c(C(=O)Nc4ccc(OC)c(OC)c4)sc3n2)c1 | -9.68
COc1ccc(CCN2C(=O)CC3CCCCC3C2=O)cc1OC (stereo not shown) | -4.31
CCOc1ccc(-c2[nH]cnc2[N+](=O)[O-])cc1 | 3.48
COc1cc(-c2nnc3sc(-c4cccnc4)nn23)cc(OC)c1OC | 14.3

From paper PMC6919601, “Identification of Plasmodium dipeptidyl aminopeptidase allosteric inhibitors by high throughput screening” (PLoS ONE, 2019)
